Measurements: PubChem BioAssay AID1030 (National Center for Advancing Translational Sciences (NCATS), 2008)
In all, about 220,000 compounds went through this assay and about 16,000 (7.3%) were called active. Inconclusive results, whose numbers are uncertain, are shown with a selection of clear calls. The call rests on the fitted dose curve; in most records, active means well fitted inhibition curve with a large enough effect (not every such curve was filed as active); inconclusive means small, poorly fitted or top-dose-only effect, or another doubt; inactive means no such curve, though single readings can be large or run the other way. Potencies of inconclusive entries are left out as doubtful fits.

molecular target: Aldehyde dehydrogenase 1A1 (Homo sapiens) (UniProt P00352); test: qHTS Assay for Inhibitors of Aldehyde Dehydrogenase 1 (ALDH1A1); settings: Purified ALDH1A1, NADH fluorescence, propionaldehyde substrate; series mostly up to 75.3 µM
UniProt P00352, sequence (P00352 whole entry, looked up): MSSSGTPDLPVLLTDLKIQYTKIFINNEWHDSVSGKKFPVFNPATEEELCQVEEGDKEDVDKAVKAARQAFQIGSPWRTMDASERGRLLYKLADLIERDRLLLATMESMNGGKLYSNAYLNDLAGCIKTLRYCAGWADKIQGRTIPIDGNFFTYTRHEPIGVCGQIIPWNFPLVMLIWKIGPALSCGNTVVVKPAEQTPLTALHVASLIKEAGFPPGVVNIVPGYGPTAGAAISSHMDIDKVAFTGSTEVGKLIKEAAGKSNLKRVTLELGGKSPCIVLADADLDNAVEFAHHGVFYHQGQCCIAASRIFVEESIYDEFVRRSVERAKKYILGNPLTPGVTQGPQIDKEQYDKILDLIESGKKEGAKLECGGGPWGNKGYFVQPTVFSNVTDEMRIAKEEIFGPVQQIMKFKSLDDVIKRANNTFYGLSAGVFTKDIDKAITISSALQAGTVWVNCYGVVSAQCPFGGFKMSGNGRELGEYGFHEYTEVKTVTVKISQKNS
Potency means the concentration at half of the fitted maximal effect; tags describe the fitted curve by direction and shape.

Row | Structure (SMILES) | Potency
1 | COCCCn1c2nc3ccccc3nc2c2c(=O)n(-c3ccccc3OC)cnc21 | inconclusive [inhibitor, single point]
2 | CC1(c2ccc(OCC#N)cc2)C=C(c2ccc(OCC#N)cc2)n2nc(C(F)(F)F)nc2N1 (centres undefined) | inconclusive [inhibitor, single point]
3 | CC(=O)N1CCC2(CC1)CN(c1cccc(-c3ccccc3)c1)C2 | inconclusive [inhibitor, single point]
4 | COC(=O)c1c(N)n(-c2ccc(NC(C)=O)cc2)c2nc3ccccc3nc12 | inconclusive [inhibitor, partial curve]
5 | CCc1ccc(NC(=O)COC(=O)CN2C(=O)COc3ccccc32)cc1 | inactive
6 | Oc1ccc(C(c2nnnn2C2CCCC2)N2CCc3ccccc3C2)cc1 (centres undefined) | inconclusive [inhibitor, single point]
7 | CCOc1ccc(C(=O)NN2C(=O)C3C4C=CC(O4)C3C2=O)cc1 (centres undefined) | active: 12.6 µM
8 | Cc1ccc(NC(=O)COc2ncnc3cc([N+](=O)[O-])ccc23)cc1S(=O)(=O)N1CCOCC1 | inconclusive [inhibitor, single point]
9 | CN(C(=O)c1coc(=O)c2ccccc12)c1ccc(Br)cc1 | inconclusive [inhibitor, single point]
10 | CCN1CCN(C(=O)/C(C#N)=C/c2ccc(OC(F)F)cc2)CC1 | inactive
11 | O=[N+]([O-])c1ccc(NCc2ccc(Cl)cc2)nc1 | inconclusive [inhibitor, single point]
12 | Cc1ccc(O)c(-c2cc(C(=O)Nc3cccnc3)[nH]n2)c1 | inactive
13 | Cc1c(C#N)c(O)n(C)c(=O)c1N=Nc1ccc(S(N)(=O)=O)cc1 | inconclusive [inhibitor, single point]
14 | COc1ccc(OC)c(NC(=S)NCc2ccccc2OC)c1 | inconclusive [inhibitor, partial curve]
15 | O=C(NCCN1CCOCC1)c1ccc2c(c1)N(Cc1ccccc1)CCS2 | inconclusive [inhibitor, partial curve]
16 | CC1(C)CC(=O)c2sc(NC(=O)c3ccco3)nc2C1 | active: 22.4 µM
17 | Clc1cccc(Nc2nc(-c3cccnc3)cs2)c1 | inconclusive [inhibitor, partial curve]
18 | CCc1cc(=O)oc2cc(OC(C)C(=O)O)c(Cl)cc12 (centres undefined) | inconclusive [inhibitor, partial curve]
19 | COC(=O)c1c(NC(C)=O)sc2c1CCCC2 | active: 25.1 µM
20 | CCOC(=O)c1cc(-c2nnc(SCC(=O)Nc3ccc(F)cc3)o2)c(C)nc1C | active: 10 µM
21 | O=C(COC(=O)c1ccccc1F)Nc1cccnc1Cl | inactive
22 | COc1ccc(-c2csc(Nc3ccc(S(=O)(=O)Nc4cc(C)on4)cc3)n2)cc1C | inconclusive [inhibitor, single point]

Row | Structure (SMILES) | Potency
23 | Cc1nc2cnc(Oc3ccccc3)nc2n(Cc2cccs2)c1=O | inconclusive [inhibitor, single point]
24 | S=C(NCc1cccs1)Nc1ccc(Br)cc1Cl | inconclusive [inhibitor, single point]
25 | Clc1ccc(-c2nnc(SCc3ccon3)o2)c(Cl)c1 | inactive
26 | Cc1cc(C)n(-c2nc(-n3nc(C)cc3C)c3c4c(sc3n2)COC(C)(C)C4)n1 | inconclusive [inhibitor, partial curve]
27 | O=C1/C(=C/c2ccc(F)cc2)SC(=S)N1Nc1ncc(C(F)(F)F)cc1Cl | inconclusive [inhibitor, full curve, poor fit]
28 | CCn1c(SCC(=O)Nc2ccccc2N2CCCCC2)nc2c1c(=O)n(C)c(=O)n2C | inconclusive [inhibitor, single point]
29 | CN(C)c1ccnc2sc3c(=O)n(-c4ccccc4)cnc3c12 | inconclusive [inhibitor, partial curve, poor fit]
30 | O=C(CCCn1c(=O)[nH]c2cc(Cl)ccc2c1=O)N1CCN(c2ccc([N+](=O)[O-])cc2)CC1 | inconclusive [inhibitor, single point]
31 | O=[N+]([O-])c1ccc(/C=N/Nc2nc(N3CCCCC3)nc(N3CCCCC3)n2)o1 | inconclusive [inhibitor, partial curve]
32 | CC1(C)CC(=O)c2c(nc(SCC(=O)Nc3nsc(-c4ccccc4)n3)c(C#N)c2-c2ccccc2)C1 | inconclusive [inhibitor, partial curve]
33 | COc1cc(OC)cc(C(=O)NC(=S)N2CCCCCC2)c1 | inactive
34 | CCOc1ccc(OCc2ccc(C(=O)N3CCCC3)o2)cc1 | active: 28.2 µM
35 | CCN(CC)S(=O)(=O)c1cccc(-c2n[nH]c(=S)n2/N=C/c2ccc(OC)cc2)c1 | inconclusive [inhibitor, partial curve]
36 | O=[N+]([O-])c1ccccc1CNC1CCCc2ccccc21 (centres undefined) | inconclusive [inhibitor, single point]
37 | CCOC(=O)COc1ccc2c(c1)C(=O)CC1(CCCCC1)O2 | inconclusive [inhibitor, partial curve]
38 | CS(=O)(=O)N(CC(=O)NCCSc1ccccn1)c1cccc2ccccc12 | inactive
39 | O=C(Cn1c(=O)oc2cc(S(=O)(=O)N3CCCC3)ccc21)NCc1ccccn1 | active: 17.8 µM
40 | O=C(c1cccc(F)c1)N1CCN=C1SCc1cccnc1 | inconclusive [inhibitor, single point]
41 | O=C(NC(=S)N1CCCCCC1)c1ccccc1Cl | inactive
42 | CN1CCN(c2ccccc2NC(=O)c2cccc([N+](=O)[O-])c2)CC1 | inactive
43 | O=C(CSc1cccc2cccnc12)Nc1cccc(S(=O)(=O)N2CCOCC2)c1 | inconclusive [inhibitor, partial curve]
44 | N#Cc1nc(-c2ccccc2F)oc1NC1CCCCC1 | inconclusive [inhibitor, partial curve]
